Measured values reported in PubChem BioAssay AID624417 (National Center for Advancing Translational Sciences (NCATS), 2012).
The campaign covered roughly 410,000 compounds. About 6,400 (1.6%) were called active. Inconclusive results, whose numbers are uncertain, are shown with a selection of clear calls. Calls follow the shape of the dose curve; as a rule, active = well fitted inhibition curve with a large enough effect; inconclusive = small, poorly fitted or top-dose-only effect; inactive = no such curve, though single readings can be large or run the other way. Potencies of inconclusive entries are left out as doubtful fits.

Target: Glucagon-like peptide 1 receptor (Homo sapiens) (UniProt P43220)
Chain of UniProt P43220 (P43220 whole entry, looked up): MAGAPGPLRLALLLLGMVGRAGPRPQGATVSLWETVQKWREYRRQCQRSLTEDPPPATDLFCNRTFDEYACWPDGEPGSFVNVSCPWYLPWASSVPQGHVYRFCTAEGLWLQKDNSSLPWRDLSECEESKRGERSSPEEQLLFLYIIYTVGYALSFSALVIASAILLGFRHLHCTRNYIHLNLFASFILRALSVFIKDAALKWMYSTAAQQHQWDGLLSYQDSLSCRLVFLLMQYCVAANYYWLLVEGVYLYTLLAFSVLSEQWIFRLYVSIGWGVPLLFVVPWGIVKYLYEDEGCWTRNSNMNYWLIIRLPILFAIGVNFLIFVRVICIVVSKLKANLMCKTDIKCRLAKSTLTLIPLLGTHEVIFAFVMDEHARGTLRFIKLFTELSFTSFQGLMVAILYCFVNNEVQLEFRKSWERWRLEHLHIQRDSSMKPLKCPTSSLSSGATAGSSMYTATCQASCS
Assay: qHTS of GLP-1 Receptor Inverse Agonists (Inhibition Mode); also: nearly all actives have a fitted effect of over 55% in size
Conditions: HEK293 GLP-1R CRE-luciferase, luminescence, 24 h, GLP-1R form is constitutively active; activity change, negative = inhibition: at 38.3 µM (top of the series) unless noted
How it was run: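 Seeding at 200 cells/uL, 12 h culture, 24 hr compound treatment, then luciferase reagent and a luminescence read; cells are HEK293 stably expressing a constitutively active GLP-1R plus cAMP-responsive luciferase.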
% is scaled to controls: 0 for no effect and ±100 for the full control effect; potency is read from the fitted curve at half-maximal effect; tags tell the direction and shape of the fitted curve.

Row | SMILES | Potency | activity change, negative = inhibition
1 | COC(=O)c1ccc(OCC2c3cc(OC)c(OC)cc3CCN2C(=O)COc2ccc(Cl)cc2)cc1 (stereo unspecified) | inactive | 
2 | Cc1c(-c2cccc(Cl)c2)nc2ccccc2c1C(=O)OCC(=O)Nc1ccc2c(c1)OCO2 | inconclusive [inhibitor, full curve, poor fit] | 
3 | CCc1ccc(C2c3[nH]c4ccccc4c3CCN2C(=O)c2cc(C)nn2C)cc1 (stereo unspecified) | inconclusive [inhibitor, partial curve, poor fit] | 
4 | O=C(O)CCC(=O)Nc1nnc(C(F)(F)F)s1 | inactive | 
5 | COc1cccc(NC(=O)CN(C)C(=O)c2cccc(NS(=O)(=O)c3ccc(Br)cc3)c2)c1 | inconclusive [inhibitor, single point] | 
6 | COc1ccc(S(=O)(=O)N2CCCN(S(=O)(=O)c3ccc(OC)cc3C)CC2)c(C)c1 | inconclusive [inhibitor, partial curve, poor fit] | 
7 | Cc1cccc(Cn2c(CNS(=O)(=O)c3ccc4c(c3)CCCC4)nc3cccnc32)c1 | inconclusive [inhibitor, single point] | 
8 | O=C(CN(C(=O)c1csnn1)c1cccc(Cl)c1)NCCc1ccccc1 | inconclusive [inhibitor, single point] | 
9 | CCOc1ccc(-c2c(C(=O)N/N=C(\C)c3ccccc3OC)nnn2-c2nonc2N)cc1 | inactive | 
10 | O=C(COc1ccccc1)Nc1nnc(-c2ccc3c(c2)CCCC3)o1 | inactive | 
11 | O=C(O)CCSc1ccc([N+](=O)[O-])cc1[N+](=O)[O-] | inactive | 
12 | Cc1c(Cl)cccc1-c1ccc(C(=O)Nc2ccc(F)cc2)o1 | inconclusive [inhibitor, single point] | 
13 | FC(F)(F)c1cccc(NC(=S)NCc2ccc(Cl)cc2)c1 | inconclusive [inhibitor, partial curve, poor fit] | 
14 | Cc1cc(C)cc(C(=O)NC(CC(N)=O)c2ccc(NC3CCCCCCC3)c([N+](=O)[O-])c2)c1 (stereo unspecified) | inactive | 
15 | CCC(Cc1ccccc1)NC(=O)Cn1cccc1C(=O)c1ccccc1 (stereo unspecified) | inconclusive [inhibitor, full curve, poor fit] | 
16 | C/C(=N\N=C(N)N)c1cc(Cl)ccc1Cl | inconclusive [inhibitor, partial curve, poor fit] | 
17 | Cc1ccccc1NC(=O)C1CCN(c2cc(-c3ccccc3)nc3ncnn23)CC1 | inconclusive [inhibitor, full curve, poor fit] | 
18 | COc1ccccc1NS(=O)(=O)c1cc(NC(=O)CCC(=O)c2cccs2)ccc1Cl | inconclusive [inhibitor, partial curve, poor fit] | 
19 | CCCc1[nH]n(-c2ccc([N+](=O)[O-])cc2)c(=O)c1C=NCCc1c[nH]c2ccccc12 | inconclusive [inhibitor, full curve, poor fit] | 
20 | COc1ccccc1N1CCN(S(=O)(=O)c2cc(Br)cnc2N)CC1 | inconclusive [inhibitor, single point] | 
21 | O=C(N/C(=C/c1cccnc1)C(=O)N1CCCCCC1)c1cccc(Br)c1 | inconclusive [inhibitor, single point] | 

Row | SMILES | Potency | activity change, negative = inhibition
22 | CCC(C)N=CC1=C(O)CC(c2ccccc2)CC1=O (stereo unspecified) | inactive | 
23 | Cc1ccc(CC(C)(O)CC(C)(O)Cc2ccc(C)cc2)cc1 (stereo unspecified) | active: 10 µM | 
24 | CC1C(=O)N(Cc2cn(CC3CCCCC3)nn2)CCS(=O)(=O)N1Cc1ccc(-c2ccc(Cl)cc2)cc1 (stereo unspecified) | inconclusive [inhibitor, partial curve, poor fit] | 
25 | COc1ccc(NS(=O)(=O)c2ccc(OC)c(N(C)S(=O)(=O)c3ccc(Cl)cc3)c2)cc1 | inconclusive [inhibitor, single point] | 
26 | CCOc1ccc(/C=C2\SC(=S)N(C(C(=O)O)c3ccccc3)C2=O)cc1OC (stereo unspecified) | inconclusive [inhibitor, single point] | 
27 | COc1ccc(C(=O)N/N=C/c2sc3ccccc3c2O)cc1 | active: 1.58 µM | 
28 | COC(=O)c1ccccc1NC(=O)CSc1nc2ccsc2c(=O)n1CCC(C)C | inactive | 
29 | S=C(N/N=C/c1ccc(Cl)c(Cl)c1)Nc1ccccc1Cl |  | inactive: 0.621% [at 0.307 µM]
30 | CCC(C(=O)OCC(=O)Nc1cccc(OC)c1)c1ccccc1 (stereo unspecified) | inconclusive [inhibitor, partial curve] | 
31 | CCOc1ccc(N2C(=O)CC(Sc3ncccn3)C2=O)cc1 (stereo unspecified) | inactive | 
32 | COc1ccc(OC)c(-c2nnc3n(Cc4ccc(C)cc4)c(=O)c4ccccc4n23)c1 | inactive | 
33 | CCN(CC)C(=O)CSc1nc(-c2ccccc2F)nc2c1Cc1c(CO)cnc(C)c1O2 | inconclusive [inhibitor, single point] | 
34 | CC(C)(C)OC(=O)N1CCC(c2c(C(=O)N3CCCCC3)cnn2-c2ccc(Cl)cc2)CC1 | inactive | 
35 | Cc1cc(NC(=O)CCNS(=O)(=O)c2ccc3[nH]c(=O)oc3c2)ccc1Br | inconclusive [inhibitor, partial curve] | 
36 | CCC(Oc1ccccc1)C(=O)O/N=C(\N)c1ccc(OC)c(OC)c1 (stereo unspecified) | inconclusive [inhibitor, single point] | 
37 | Cc1c(Cl)cccc1NC(=O)Cn1c(CCC(=O)O)ccc1-c1cccs1 | inconclusive [inhibitor, partial curve] | 
38 | COc1ccccc1-n1cnc(N)c1C(=O)c1ccccc1 | inconclusive [inhibitor, partial curve, poor fit] | 
39 | CCC(Sc1nc2ccsc2c(=O)n1Cc1ccc(C(=O)O)cc1)C(=O)Nc1ccc(C)c(Cl)c1 (stereo unspecified) | inconclusive [inhibitor, single point] | 
40 | OC(CNC1CCCc2ccccc21)COc1ccc2ccccc2c1 (stereo unspecified) | inconclusive [inhibitor, partial curve, poor fit] | 
41 | CCOc1ccc(-c2cccc(NS(=O)(=O)c3c(C)cc(C)cc3C)c2)nn1 | inconclusive [inhibitor, single point] | 
